Source: article PMC4336329 (PLoS ONE, 2015)
About 2,200 (0.71%) of roughly 310,000 compounds showed an effect of 50% or more. Effects have a minus sign here. The list shows a part of the results.

The compounds below were run against human ether-à-go-go-related gene (hERG) potassium channel (human, UniProt Q12809) (assay: primary screen, population patch clamp on CHO cells stably expressing hERG).
Sequence of human ether-à-go-go-related gene (hERG) potassium channel (Q12809 whole entry, looked up): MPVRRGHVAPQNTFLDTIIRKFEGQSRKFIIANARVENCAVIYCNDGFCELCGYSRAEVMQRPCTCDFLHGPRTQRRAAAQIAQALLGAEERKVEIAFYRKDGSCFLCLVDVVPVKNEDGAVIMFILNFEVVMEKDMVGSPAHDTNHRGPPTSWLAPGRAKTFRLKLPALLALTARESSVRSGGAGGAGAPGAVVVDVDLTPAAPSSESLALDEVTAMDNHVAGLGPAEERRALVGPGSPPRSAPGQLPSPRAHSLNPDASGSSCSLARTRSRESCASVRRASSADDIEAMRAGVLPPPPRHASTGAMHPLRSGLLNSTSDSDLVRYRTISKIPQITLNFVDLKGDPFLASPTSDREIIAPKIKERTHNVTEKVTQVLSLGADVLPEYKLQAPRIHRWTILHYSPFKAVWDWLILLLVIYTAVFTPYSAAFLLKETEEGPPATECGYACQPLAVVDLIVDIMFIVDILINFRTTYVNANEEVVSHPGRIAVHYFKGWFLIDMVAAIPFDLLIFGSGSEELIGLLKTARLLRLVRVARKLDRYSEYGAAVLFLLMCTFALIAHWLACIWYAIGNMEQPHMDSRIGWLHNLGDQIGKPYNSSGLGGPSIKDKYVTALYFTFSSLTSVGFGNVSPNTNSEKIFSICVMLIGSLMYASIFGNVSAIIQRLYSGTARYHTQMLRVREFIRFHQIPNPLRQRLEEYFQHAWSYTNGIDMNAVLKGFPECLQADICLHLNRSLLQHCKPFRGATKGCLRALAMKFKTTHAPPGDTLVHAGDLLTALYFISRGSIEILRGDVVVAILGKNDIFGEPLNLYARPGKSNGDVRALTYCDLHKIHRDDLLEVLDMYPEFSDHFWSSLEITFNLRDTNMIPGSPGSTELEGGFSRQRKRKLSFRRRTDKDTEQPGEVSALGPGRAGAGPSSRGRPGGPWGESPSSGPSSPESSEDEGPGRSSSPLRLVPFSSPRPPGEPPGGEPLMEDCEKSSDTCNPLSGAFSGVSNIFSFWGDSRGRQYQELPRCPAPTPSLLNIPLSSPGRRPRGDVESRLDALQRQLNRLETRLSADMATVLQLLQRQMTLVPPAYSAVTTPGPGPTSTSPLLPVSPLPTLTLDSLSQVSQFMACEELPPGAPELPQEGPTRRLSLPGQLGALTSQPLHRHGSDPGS

SMILES | hERG current change (%, negative = inhibition) at 1uM [%]
O=C(CSc1nc(C2CC2)nc2ccccc12)Nc1ccc2c(c1)OCCO2 | 8.8
COCCN(Cc1cc2cc3c(cc2nc1Cl)OCO3)C(=O)c1ccc(C)cc1 | -13.2
COc1ccc(N(C(=O)c2cnsn2)C(C(=O)NC2CCCCC2)c2ccncc2)cc1 (centres unmarked) | 7.11
Cc1cccc(N2C(=O)C(CC(=O)Nc3cccc(F)c3)N(CCc3ccncc3)C2=O)c1 (centres unmarked) | 1.37
COc1ccccc1OCC(O)CO (centres unmarked) | 12.5
COCCN1CN(S(=O)(=O)c2ccc(Cl)cc2)c2nc3ccccc3nc21 | -2.61
CC(C)(C)c1ccc(CN2N=Nc3ccccc3S2(=O)=O)cc1 | 4.53
Cc1ccc(Cn2c(CN3CC(C)OC(C)C3)nc3c2c(=O)n(C)c(=O)n3C)cc1 (centres unmarked) | 4.43
CC1Cc2ccccc2N1C(=O)COC(=O)C1=COCCO1 (centres unmarked) | 8.54
CS(=O)(=O)N(CCCC(=O)N1CCCCCC1)c1cccc(Cl)c1 | -1.2
Cc1cccc(Cc2nnc(NC(=O)c3cccc(S(=O)(=O)N4CCOCC4)c3)s2)c1 | 10.4
Cc1cc(-c2ccccc2)nc2oc3c(c12)NC(=O)CN(c1ccccc1)C3=O | 3.57
O=C(/C=C/c1ccccc1)NC(N1CCOCC1)C(Cl)(Cl)Cl (centres unmarked) | 4.49
CCOC(=O)C1CCN(C(=O)c2cccc(S(=O)(=O)N(CC)c3ccccc3)c2)CC1 | -0.916
c1ccc2[nH]c(CSc3ncnc4c3oc3ccccc34)nc2c1 | -0.791
CNS(=O)(=O)c1cccc(C(=O)OCC(=O)NCCCc2ccccc2)c1 | 8.09
COc1cc(NC(=O)C(=O)NNC(=O)C2CCCCC2)c(OC)cc1Cl | -2.32
Oc1ccc2ccccc2c1N=Nc1ccccc1F | 6.68
COc1ccc(CCNc2ccc(S(=O)(=O)N3CCN(C)CC3)cc2[N+](=O)[O-])cc1 | 8.15
CCOC(=O)N1CCN(C(=O)c2c[nH]c3ccc(S(=O)(=O)N(C)c4ccc(F)cc4)cc3c2=O)CC1 | 14.9
COc1cccc(NC(=O)COC(=O)CCn2c(C)csc2=O)c1 | 9.14
CCCCn1ccc(=O)c2c(C(F)(F)F)nccc21 | 5.52
COc1cccc(C2=NOC(C(=O)N3CCOCC3)C2)c1 (centres unmarked) | 10.7

SMILES | hERG current change (%, negative = inhibition) at 1uM [%]
N#Cc1c(NC(NC(=O)c2ccco2)C(=O)c2ccccc2)sc2c1CCCC2 (centres unmarked) | 10.9
CCOC(=O)C1=C(C)NC(C)=C(C(=O)OCC)C1C(=O)OCC(=O)N(C)C | 16.7
COCc1cc(C)nc(SCC(=O)NCc2ccco2)c1C#N | -4.02
COc1ccccc1NC(=O)Cc1noc(CSc2nnc(C)n2C)n1 | 4.89
O=C(CCc1nc(-c2ccccc2Cl)no1)NCC1CCCO1 (centres unmarked) | 11.7
Cc1cccc(N2CC(C(=O)Nc3ccccc3N3CCCC3)CC2=O)c1C (centres unmarked) | -4.76
COCCCNC(=O)c1c[nH]c2ccc(S(=O)(=O)N3CCc4ccccc43)cc2c1=O | 12.8
Cc1ccc(C2CC(c3ccc(NS(C)(=O)=O)cc3)=NN2C(=O)c2ccco2)cc1 (centres unmarked) | -21.1
COc1ccc(NC(=O)CN(C)S(=O)(=O)c2ccc(Br)s2)cc1OC | 13.6
N/C(=N/OC(=O)c1ccccc1Cl)c1ncc([N+](=O)[O-])s1 | 18.4
CCOC(=O)C(NC(=O)c1cccc(Cl)c1)(Nc1nnc(C)s1)C(F)(F)F (centres unmarked) | 7.76
C=C(C)COc1ccc(-c2ncnc(C(F)(F)F)c2-c2ccc(OC)cc2)c(O)c1 | 15.1
C=CCn1c(-c2csc(-c3ccc(OC)c(OC)c3)n2)n[nH]c1=S | 6.02
Cn1c(CNC(=O)c2ccccc2F)nnc1SCC(=O)c1ccccc1 | 3.2
Cc1ccc(C(=O)N/C(=C\c2cn(S(=O)(=O)N(C)C)c3ccccc23)C(=O)N2CCCC2)cc1 | 16
CC(=O)N1CCN(c2ccc(NCc3ccccc3)cc2)CC1 | 14.3
Cc1ccc(CS(=O)Cc2ccc(C(=O)NC3CCCC(C)C3C)o2)cc1 (centres unmarked) | 24.1
COc1ccccc1/C=C/C(=O)NCC(=O)N1CCC(N(C)C2CCCC2)CC1 | -8.9
Cn1nccc1C(=O)N1CCN(c2cccc(C(F)(F)F)c2)CC1 | 4.91
CC(CC(=O)NCCc1ccc(Cl)cc1)S(=O)(=O)c1ccc2c(c1)NC(=O)CO2 (centres unmarked) | -9.21
CCNc1nnc(CCn2nc(C)c(Br)c2C)s1 | 8.64
Cc1nn(CC(C)C)c(Cl)c1C(=O)N(C)CC(=O)Nc1c(Cl)cccc1Cl | 15.3
COc1ccc(C2=NN(c3nc(C(=O)O)cs3)C(O)(C(F)(F)F)C2)c(OC)c1 (centres unmarked) | 16.1

SMILES | hERG current change (%, negative = inhibition) at 1uM [%]
CC(C)(C)c1cc(S(=O)(=O)CCc2ccccn2)cc(C(C)(C)C)c1F | 16.2
Cc1ccc(OCC(=O)Nc2ccccc2C(=O)NC2CC2)cc1C | -2.3
O=C(c1cccc(F)c1)N1CCN(Cc2ccco2)CC1 | 11.2
CC1C=CCC2C(=O)N(c3cc(Cl)ccc3O)C(=O)C12 (centres unmarked) | 10
COc1cc(CNc2ccc(N3CCN(C(C)=O)CC3)cc2)ccc1OCc1ccc(F)cc1 | 1.27
Cc1oc2c(C)c3oc(=O)c4c(c3cc2c1C)CCCC4 | 5.27
Cc1ccc2c(Cl)c(C(=O)NCc3cccnc3)sc2c1 | 4.38
O=C(NCc1ccc2c(c1)OCO2)c1cc2c(s1)CS(=O)(=O)C2 | 12.5
CNc1cc(F)nc(F)n1 | 8.25
CC(=O)c1ccc2c(c1)OCCOCCOCCOCCO2 | -3.2
Cc1c(N(C)C(=O)C23CC4CC(CC(C4)C2)C3)c(=O)n(-c2ccccc2)n1C | 4.44
Nc1nnc(SCC(=O)OCc2ccc(F)cc2)s1 | 10.8
CN1CCc2c(n(CC(O)CN(CCO)CCO)c3ccccc23)C1=O.Cl (centres unmarked) | 6.46
COc1ccc(NC(=S)NC(C)C(c2ccccc2)N2CCOCC2)cc1 (centres unmarked) | 11.2
Cl.O=C(Cc1ccccc1)OCCN1CCCCC1 | 12.1
Cc1ccc(C)c(-n2nnnc2SCC(=O)Nc2c(C)n(C)n(-c3ccccc3)c2=O)c1 | 9.93
O=C(Nc1ncc(Cc2cccc(Cl)c2)s1)C1=NCCN1 | 10.7
CCCc1nnc(SCC(=O)N2CCCC(C)C2)n1CCCOC (centres unmarked) | 7.87
Cc1cc(C(C)(C)C)ccc1OCCCCN1CCCC1 | 0.441
CC(C)(C)C(=O)OCC12CCC(O1)C1(C)C(=O)OCC21 (centres unmarked) | 26.6
COC(=O)NC1CSCC1OC(=O)CCN1C(=O)c2ccccc2C1=O (centres unmarked) | 5.79
CCN(Cc1ccccc1)S(=O)(=O)c1ccc(C(=O)N(CCCN(C)C)c2nc3ccc(F)cc3s2)cc1.Cl | 16.1
Cc1ccc(N=C2NC(=O)C(CC(=O)NCc3ccccc3)S2)cc1C (centres unmarked) | 8.3

SMILES | hERG current change (%, negative = inhibition) at 1uM [%]
COCCCNC(=O)CCc1ccccc1 | 18
C=CCn1c(O)c(N=NC(=O)CNC(=O)Cc2ccccc2)c2ccccc21 | 11.1
Cc1cccc(NC(=S)N(CCCN(C)C)Cc2cc3cc4c(cc3[nH]c2=O)OCO4)c1 | -11.8
COc1cccc(NC(=O)CN(C)C(=O)c2cccc(S(=O)(=O)Nc3ccccc3OC)c2)c1 | 7.33
O=C(Nc1ccc(F)cc1F)N1CCCC(c2nc(-c3ccc(F)cc3)no2)C1 (centres unmarked) | 3.73
Cc1nnc(NC(=O)C(C)Oc2ccc3c(C)cc(=O)oc3c2)s1 (centres unmarked) | 12.7
Cc1ccc(C(C(=O)NC(C)(C)C)N(C(=O)c2csnn2)c2ccccc2F)o1 (centres unmarked) | -0.276
COc1ccccc1NC(=O)CNS(=O)(=O)c1ccccc1 | 3.69
CCS(=O)(=O)Nc1ccc(Cc2ccc(NS(=O)(=O)CC)cc2)cc1 | 0.871
CCN(CC(=O)NC1CCCC1)S(=O)(=O)c1ccc(F)cc1 | 12.2
Cn1c(=O)c2c(nc(-c3ccccc3)n2C)n(Cc2ccccc2)c1=O | 3.76
COc1cc(CC(=O)OCC(=O)N2C(C)CCCC2C)cc(OC)c1OC (centres unmarked) | 13.5
CCCCCN1CC(O)=C(c2ccccc2)C1=N | 9.11
Oc1cccc(Nc2ccccc2)c1 | 9.51
Cc1cc(C(=O)N/N=C/c2cc([N+](=O)[O-])ccc2O)c2ccccc2n1 | 11.8
Cc1cccc(C)c1NC(=O)COC(=O)c1cc[n+]([O-])cc1 | 14
COc1ccc(C2CCCN2C(=S)Nc2ccccc2C)cc1OC (centres unmarked) | 11.6
CCc1cccc(CC)c1-n1c(-c2cccnc2)n[nH]c1=S | 15.2
CC(=O)Nc1ccc(NC(=O)CCn2nnc3ccccc32)cc1 | -2.34
O=C(CCCCn1c(=O)c2ccccc2n(Cc2ccccc2)c1=O)NC1CCN(Cc2ccccc2)CC1 | -22.6
